According to a collection of fitness landscapes (doi:10.1016/j.celrep.2020.107928):
The full ranking holds about 81,000 sequences; the median of “one-hybrid fitness for binding NBS DNA” is about -0.1, and the highest 2% start at about 0.36. The list shows a part of the results.

B1: Caulobacter ParB omega fusion; a variant is named by its letters at X, in order, B8GW30 (parent)
chain: MESVVVGEPGMSEGRRGLGRGLSALLGEVDAAPAQAPGEQLGGSREAPIEILQRNPDQPRRTFREEDLEDLSNSIREKGVLQPILVRPSPDTAGEYQIVAGERAWRAAQRAGLKTVPIMVRELDDLAVLEIGIIENVQRADLNVLEEALSYKVLMEKFERTQENIAQTIGKSXSHVANXMRLLXLPDEVQSYLVSGELTAXHARAIAAAADPVALAKQIIEGGLSVRETEALARKAPNLSAGKSKGGRPPRVKDTDTQALESDLSSVLGLDVSIDHRGSTGTLTITYATLEQLDDLCNRLTRGI

Variants of: B1
Test: one-hybrid fitness for binding NBS DNA (the Noc-binding site; scaled: cognate 1, non-cognate 0); higher = stronger binding
Settings: with NBS DNA site
How it was run: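 Pre- and post-selection plasmids were Illumina-sequenced, three replicate libraries were pooled, and any variant with under 10 reads was removed. The libraries were Caulobacter ParB with four specificity codons randomised, selected in E. coli USO through a HIS3 reporter whose site is 19 bp from the promoter. Cells grew 48 hours at 37°C on M9 without histidine, with 0.1 mM IPTG and 5 mM 3-AT. Fitness is the log change in variant-to-wild-type read ratio, rescaled against cognate and non-cognate.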

one-hybrid fitness for binding NBS DNA, 0.219:
RCHH

one-hybrid fitness for binding NBS DNA, 0.617:
KRNT

one-hybrid fitness for binding NBS DNA, 0.296:
QSCS

one-hybrid fitness for binding NBS DNA, ≤ 0.2:
CSAV
NSSW
WQGN
AEPF
VIMY
KTHF
QFRM
HFCG
DVQL
LQSF
TKHS
NQPL
PANY
LGKT
QGRE
RHWG
NYHS
PMRL
KISR
FCDT
YLGD
RDST
LMIL
TQER
ECKG
TSWL
VKVR
LHGC
WYAC
PFSL
TCRN
HGKY
LLAS
SLNW
NTAW
VQTW
ALYF
TLCF
SHQP
AVKE
SVLD
QNNH
LGWL
RKDF
YPLE
PWSR
FRYA
PMGS
PGIC
LQWI
STSM
SLLG
FNPR
TPHG
SSMH
ECIV
QTPC
QIMC
CKMG
MGRI
FINF
YWWR
AATM
EGIC
RCYH
QSHG
MLLP
QVMY
KYKM
VSLR
QANQ
GQAG
TLCA
SRTK
EWLT
MVSC
AQEK
MHTE
PLQF
EMSW
MFHS
KMLW
VTVH
RMAC
VWPC
VDSN
KGWL
RDLN
AHAF
RFDW
RPSR
FARG
DSYC
NDPK
DASR
TDLL
VESG
PKAC
RLQP
PDRR
GFMS
CSNM
DMVF
RNLR
YPEY
NIDV
PDSV
HHGL
TSGH
LPIV
MGAG
KNIT
CKAC
QTYN
IRPF
CVHV
VLAR
CRFT
WHQT
YSSG
PWKS
SRAL
ARKD
RLEL
MVHS
HAHP
RGNY
RETI
ETSF
ATHQ
CYHM
PDFI
AWSL
YFSR
LNTC
RHSF
AAMY
QGSE
SALE
SCCT
RTIE
PHTV
LCSE
LSIM
STLE
YEEM
AYDP
GLNG
VQGI
CTAV
PVRA
YYVQ
YTTW
LPGK
SHVG
IQAT
FLGV
YPLC
RMSD
QHFA
HLPV
NLSF
HYED
IGST
ATSV
HGRM
PSVE
LNTE
EALG
KRDA
ERRS
NIFD
GWIG
MYER
LNHG
SKLL
RGRC
NEYS
REKI
AQSV
TNRD
GLGC
TEHD
KGIT
QAHV
VIGS
HTHK
LNRR
PATM
GVAR
YTAA
INDI
AWNR
RTAC
SFDF
GSLK
PETM
RQMW
MARV
RFLH
NMAP
VDRG
YRFS
PHPH
CPEG
QRPH
PPKV
EPKG
PPDN
VFFA
VTVT
YNNK
KPVC
GNIG
DDCV
ELRK
EAFG
RAHL
SRKV
RKYL
IQYA
HSRS
AQIA
PWSP
MGCR
FNNA
NSRS
RKAK
HKAR
LNDS
NLLC
DQCR
FQIS
TQLW
SETR
RPWC
NFAV
MVWG
WAPS
AGWN
EPDG
CRQY
RDKF
RPQV
WLHG
MSCE
YKRH
MSKI
DKHT
MKET
KTDL
GHSI
NCGR
DTNS
QMGC
VQPR
QYNG
CRLI
RWAG
NNCL
HLML
RITN
GLES
RYGI
GQNS
KEMR
QIKG
YRHA
FWFS
TKTT
WFKT
KRDY
LTCR
FPAL
ERNK
NDRK
YRCL
NPKG
VVCS
KATM
RFRW
SHTC
QFQC
PING
PMPA
VGMR
ISDN
FNWR
RVVE
TDPR
GPRC
PFVR
ASIV
KARW
SYSC

one-hybrid fitness for binding NBS DNA, 0.388:
QFKT

one-hybrid fitness for binding NBS DNA, 0.583:
RKCT

one-hybrid fitness for binding NBS DNA, 0.331:
RQKY

one-hybrid fitness for binding NBS DNA, 0.238:
RRVN

one-hybrid fitness for binding NBS DNA, 0.379:
QSVR

one-hybrid fitness for binding NBS DNA, 0.203:
PAKR

one-hybrid fitness for binding NBS DNA, 0.527:
QTLT

one-hybrid fitness for binding NBS DNA, 0.309:
RRAV
